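Five concentrations, 48 hours, 96-well plates. Abbreviation: GI50, concentration required for 50% inhibition of growth.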 Activity calls are given as the source filed them. Rule as the data show it: active = GI50 up to about 1.1 µM and inactive = higher.
tested on: NCI-H322M; test: NCI-60 cell line screen, 48 h

For CCc1n[nH]c(=O)n1/N=C(\C)c1ccc([N+](=O)[O-])cc1, which GI50 is on record?
The GI50 was inactive: 84.9 µM.

Brc1ccccc2cc(-c3ccccc3)nc1-2 was tested. Which GI50 did it give?
Its GI50 is inactive: 14.7 µM.

CC12N=NN(c3ccc([N+](=O)[O-])cc3)C1(O)c1ccccc1C2=O (stereo not given) was tested. Which GI50 did it give?
Its GI50 is inactive: > 100 µM.

With Cc1cccc(C)c1NC(=O)C1=NC(=S)NC(c2ccccc2)C1c1nc2ccccc2s1 (stereo not given) as the molecule, how does the GI50 read?
The GI50 was inactive: > 100 µM.

Which GI50 does the source give for CC(C)(C)OC(=O)NCC(=O)NC1C/C(=N\O)c2sccc21 (stereo not given) here?
Its GI50 is inactive: > 100 µM.

With COc1cc2c(cc1OC)-c1c(oc3cc(OC4OC(CO)C(O)C(O)C4O)c(OC)cc3c1=O)C(O)O2 (stereo not given) as the molecule, how does the GI50 read?
Its GI50 is inactive: > 100 µM.

With COC(=O)c1c2c(cc3c1CC1(C3)Cc3ccc4c(c3C1=O)CCC4)CCC2 (stereo not given) as the molecule, how does the GI50 read?
Its GI50 is inactive: 4.52 µM.

With CC1CCC2C(C)C(OC(=O)CCC(=O)O)OC3OC4(C)CCC1C32OO4 (stereo not given) as the molecule, how does the GI50 read?
The GI50 was inactive: > 100 µM.

CC1=C(C(=O)OCCO[N+](=O)[O-])C(c2cccc([N+](=O)[O-])c2)C(C(=O)OC(C)C)=C(C)N1 (stereo not given) was tested. Which GI50 did it give?
The GI50 was inactive: 20.2 µM.

C/C(=N\c1c2ccccc2nc2ccccc12)N(C)C was tested. Which GI50 did it give?
Its GI50 is inactive: 28.6 µM.

With NC(=O)c1sc2nc3ccccc3n2c1N as the molecule, how does the GI50 read?
The GI50 was inactive: 82.8 µM.

With CC1=C(C)C2(C#N)C(=O)N3C(=NC(c4ccccc4)NC3c3ccccc3)C2(C#N)C(c2ccccc2)N1 (stereo not given) as the molecule, how does the GI50 read?
The GI50 was inactive: > 100 µM.

Cc1cccc(-n2c(C)nc3ccc(NC4OC(CO)C(O)C(O)C4O)cc3c2=O)c1 (stereo not given) was tested. Which GI50 did it give?
Its GI50 is inactive: > 100 µM.

How did the GI50 turn out when CN(C)C1(N(C)C)Oc2c(c(=O)n(C)c(=O)n2C)C(c2ccc(Br)cc2)C1(F)F (stereo not given) was run?
The GI50 was inactive: > 100 µM.

Which GI50 does the source give for O=C(Nc1cccc2ccccc12)Nn1cnnc1 here?
The GI50 was inactive: > 100 µM.

With C=C1C(=O)OC2/C=C(/C)C(OC(C)=O)CC(O)/C(C)=C\C(OC(=O)/C(C)=C\C)C12 (stereo not given) as the molecule, how does the GI50 read?
The GI50 was inactive: > 100 µM.

How did the GI50 turn out when CC(=O)OC/C=C/Cn1nc(Br)c(=O)[nH]c1=O was run?
The GI50 was inactive: > 100 µM.

With C=CCN1C(=O)/C(=C/c2ccco2)N=C1SC1OC(COC(C)=O)C(OC(C)=O)C(OC(C)=O)C1OC(C)=O (stereo not given) as the molecule, how does the GI50 read?
Its GI50 is inactive: > 100 µM.

With CCOC(=O)c1[nH]c2cc(OC)c(OC)cc2c1CN(C)C as the molecule, how does the GI50 read?
Its GI50 is inactive: > 100 µM.

With COc1cc(C2c3[nH]c4ccccc4c3[C@@H](Nc3ccc(F)cc3)[C@H]3COC(=O)N23)cc(OC)c1O (stereo not given in full) as the molecule, how does the GI50 read?
The GI50 was inactive: 7.4 µM.

How did the GI50 turn out when CC(=O)Oc1c2c(c3n(c1=O)CCCC3)C(=O)N(c1ccccc1)C2=O was run?
The GI50 was inactive: > 100 µM.

With CCOC(=O)C1=C(C)N(c2ccc(C)cc2)C2(O)C=CC(O)=C3C(=O)c4ccccc4C(=O)C312 (stereo not given) as the molecule, how does the GI50 read?
Its GI50 is inactive: 36.1 µM.

How did the GI50 turn out when COC(=O)[C@H](Cc1ccccc1)NC(=O)c1ccc(CNC(=O)/C=C/c2ccc(OCc3ccccc3)cc2)cc1 was run?
The GI50 was inactive: 22.5 µM.

CC(=O)O[C@H]1CC[C@]2(C=O)[C@H]3CC[C@]4(C)[C@@H](C5=CC(=O)OC5)CC[C@]4(O)[C@@H]3CC[C@]2(O)C1 [STROPHANTHIDIN ACETATE] was tested. Which GI50 did it give?
Its GI50 is active: 0.39 µM.

For CCCC(=O)Nc1cc(/C=C/C(=O)N2CC(CCl)c3ccc([N+](=O)[O-])cc32)n(C)c1 (stereo not given), which GI50 is on record?
The GI50 was inactive: > 100 µM.

How did the GI50 turn out when O=C1CCCCN1C(=O)c1ccc([N+](=O)[O-])cc1 was run?
Its GI50 is inactive: > 100 µM.

Which GI50 does the source give for Cn1c(N/N=C/c2ccccc2)nc(-c2ccc3c(c2)OCO3)c(C#N)c1=O here?
Its GI50 is inactive: > 100 µM.

For CCSSCS(C)(=O)=O, which GI50 is on record?
Its GI50 is inactive: 53.1 µM.

For CCOC(=O)c1c(-c2[nH]c(C(=O)OCc3ccccc3)c(C)c2C(=O)OCC)[nH]c(C(=O)OCc2ccccc2)c1C, which GI50 is on record?
The GI50 was inactive: > 100 µM.

With Cc1ccc(C)c(N2C(=O)C(=O)C(c3nc4ccccc4s3)C(=O)C2=O)c1 as the molecule, how does the GI50 read?
Its GI50 is inactive: 71.8 µM.

How did the GI50 turn out when CC1OC(O[C@H]2CC[C@]3(C)[C@H]4CC=C5[C@@H]6[C@@H](C)[C@H](C)CC[C@]6(C(=O)O)CC[C@@]5(C(=O)O)[C@]4(C)CC[C@H]3C2(C)C)C(O)C(O)C1O (stereo not given in full) was run?
The GI50 was inactive: > 75 µM.

For Cc1c(N2C(=O)C(Cl)C2c2ccc(Cl)cc2)c(=O)n(-c2ccccc2)n1C (stereo not given), which GI50 is on record?
Its GI50 is inactive: > 100 µM.

With N/C(=N\OC(=O)NC(Cl)=C(Cl)Cl)c1cc(C(F)(F)F)cc(C(F)(F)F)c1 as the molecule, how does the GI50 read?
Its GI50 is inactive: 12.4 µM.

How did the GI50 turn out when CCCCS(=O)(=O)CCC(N)P(=O)(O)O (stereo not given) was run?
Its GI50 is inactive: > 100 µM.

For CC(c1ccccc1)/[N+]([O-])=C/c1ccccc1 (stereo not given), which GI50 is on record?
Its GI50 is inactive: > 100 µM.

Nc1nc(O)c([N+](=O)[O-])c(NCCOCP(=O)(O)O)n1 was tested. Which GI50 did it give?
Its GI50 is inactive: > 100 µM.

Which GI50 does the source give for COc1ccc(-n2nnc3c(C#N)c(C)c(-c4ccccc4)n3c2=O)cc1 here?
The GI50 was inactive: 4.47 µM.

CC(=O)Oc1c2c(c(OC(C)=O)c3c1n(C(C)=O)c1ccccc1n3C(C)=O)n(C(C)=O)c1ccccc1n2C(C)=O was tested. Which GI50 did it give?
Its GI50 is inactive: 5.04 µM.

How did the GI50 turn out when COC(=O)C1(C(=O)OC)N=C(C)OC1c1ccccc1O (stereo not given) was run?
The GI50 was inactive: > 100 µM.

How did the GI50 turn out when COc1cc2cc(c1Cl)N(C)C(=O)C[C@H](OC(=O)[C@H](C)N(C)C(C)=O)[C@]1(C)O[C@H]1[C@H](C)[C@@H]1C[C@@](O)(NC(=O)O1)[C@H](OC)/C=C/C=C(/C)C2 was run?
Its GI50 is active: 0.0236 µM.

Which GI50 does the source give for Cc1[nH]c2c(C)ccc(C)c2c1CC(=O)O here?
The GI50 was inactive: 79.6 µM.

For COc1c2c(cc3c(CCc4ccccc4)cc(=O)oc13)CCC(C)(C)O2, which GI50 is on record?
The GI50 was inactive: > 100 µM.

How did the GI50 turn out when c1csc(-c2ccc(-c3cccs3)c3nsnc23)c1 was run?
The GI50 was inactive: > 70.3 µM.

O=c1s[s+]([O-])c2ccccc12 (stereo not given) was tested. Which GI50 did it give?
Its GI50 is inactive: > 100 µM.

How did the GI50 turn out when CCCCCCCCCCCCCCCCCCNC(=O)OCC(CNS(=O)(=O)CCC[n+]1cccc2ccccc21)COC (stereo not given) was run?
Its GI50 is inactive: 6.47 µM.

COc1ccccc1NC(=O)C1=C(C)NC(C)=C(C(=O)Nc2ccccc2OC)C1c1ccccc1F was tested. Which GI50 did it give?
The GI50 was inactive: > 100 µM.

For Nc1ccc2nc(-c3cccc(C(F)(F)F)c3)cc(O)c2c1, which GI50 is on record?
Its GI50 is inactive: 40.6 µM.

How did the GI50 turn out when COc1ccc(C2SCC(=O)N2NC2=NC(=O)CC(=O)N2)cc1 (stereo not given) was run?
The GI50 was inactive: > 100 µM.

How did the GI50 turn out when CCCCC(C)(C/C=C/[C@@H]1[C@@H](C(O)CCCCCC(=O)OC)C(=O)C[C@H]1O[Si](C)(C)C(C)(C)C)O[Si](C)(C)C (stereo not given in full) was run?
The GI50 was inactive: > 100 µM.

How did the GI50 turn out when CC(=O)Nc1cc2c(cc1O)CC[C@@H]1[C@@H]2CC[C@]2(C)[C@@H](O)CC[C@@H]12 was run?
Its GI50 is inactive: 81.7 µM.

CC[N+](C)(C)c1ccc(C(=C2C=CC(=[N+](C)C)C=C2)c2ccc(N(C)C)cc2)cc1 was tested. Which GI50 did it give?
Its GI50 is inactive: 11.3 µM.

For c1ccc2c(c1)CCc1cc3cc4c(nc3nc1-2)-c1ccccc1CC4, which GI50 is on record?
The GI50 was inactive: > 100 µM.

With CCCN(C(=O)c1c(Cl)nnc(Cl)c1C(=O)c1cc(Cl)nnc1Cl)c1cc(Cl)nnc1Cl as the molecule, how does the GI50 read?
Its GI50 is inactive: 13.7 µM.

How did the GI50 turn out when Clc1sc(Cl)c2c1[C@@H](Cl)C[C@@H]2Cl was run?
The GI50 was inactive: > 100 µM.

With C=C(C)C(O)C(O)C[C@@H](C)C1CC[C@]23C[C@]12CCC1[C@@]2(C)CCC(OC(C)=O)C(C)(C)C2CC(OC2OC(CO)C(O)C(O)C2O)[C@]13C (stereo not given in full) as the molecule, how does the GI50 read?
The GI50 was inactive: 21.8 µM.

Which GI50 does the source give for CCOC(=O)/C=C(\C(=O)OCC)n1ccc(=O)n(Cc2cnnn2COCCOC(C)=O)c1=O here?
The GI50 was inactive: 29.7 µM.

Which GI50 does the source give for CC(=O)C1(O)CC2(c3ccccc3)C(=O)C1(c1ccccc1)C(c1ccccc1)=C2c1ccccc1 (stereo not given) here?
Its GI50 is inactive: > 100 µM.

For Cn1c(=O)c2nc(SCc3ccccn3)[nH]c2n(C)c1=S, which GI50 is on record?
Its GI50 is inactive: > 100 µM.

CC1CN=C(Nc2cccc(C(F)(F)F)c2)S1 (stereo not given) was tested. Which GI50 did it give?
Its GI50 is inactive: 56.1 µM.

How did the GI50 turn out when CCOC(=O)/C(Br)=C1/OC(=O)c2ccccc2-c2ccccc21.CCOC(=O)/C(Br)=C1\OC(=O)c2ccccc2-c2ccccc21 was run?
Its GI50 is inactive: 22.2 µM.

From ChEMBL document CHEMBL1201862, “PubChem BioAssay data set” (2004)
